Source: the supplement of paper PMC3334620
The full ranking holds about 33,000 sequences; the median of “E-score (-0.5 to 0.5)” is about -0.016, and the highest 2% start at about 0.32. The list shows a part of the results.

What follows are sequences tested against T1, Stp1 (UniProt B3LFK1) (assay: PBM E-score (8-mer binding enrichment) (E-score (-0.5 to 0.5)); higher = stronger / more preferred TF binding; most listed sequences are background and not binding sites). Conditions: protein concentration: 200 nM; construct: GST-full length.
T1 sequence: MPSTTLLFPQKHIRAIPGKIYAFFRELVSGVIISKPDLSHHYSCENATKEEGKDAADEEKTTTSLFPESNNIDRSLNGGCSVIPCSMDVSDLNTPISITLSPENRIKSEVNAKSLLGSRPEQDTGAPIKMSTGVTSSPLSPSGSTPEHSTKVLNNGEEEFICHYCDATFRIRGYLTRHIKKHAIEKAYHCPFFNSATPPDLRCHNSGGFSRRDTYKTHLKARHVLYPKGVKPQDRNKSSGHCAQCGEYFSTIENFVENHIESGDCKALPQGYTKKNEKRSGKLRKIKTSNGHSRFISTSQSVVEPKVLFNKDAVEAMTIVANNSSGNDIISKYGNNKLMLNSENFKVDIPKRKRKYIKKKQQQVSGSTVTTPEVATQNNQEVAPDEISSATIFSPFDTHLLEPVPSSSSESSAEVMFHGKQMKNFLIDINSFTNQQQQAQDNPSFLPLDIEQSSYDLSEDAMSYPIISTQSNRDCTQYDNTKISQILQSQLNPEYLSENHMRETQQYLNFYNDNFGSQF
Experimental: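 Universal 'all 10-mer' protein binding microarrays (Agilent AMADID 015681) probed with GST-tagged S. cerevisiae TFs (full-length or DBD) made by in vitro transcription/translation (PURExpress), about 100-200 nM. Bound TF was detected with fluorescent anti-GST. Each ungapped 8-mer (which stands for itself and its reverse complement) is scored by the PBM enrichment score (E-score), a modified Wilcoxon-Mann-Whitney statistic from -0.5 to +0.5, computed with the Universal PBM Analysis Suite. Scale: above 0.35 generally sequence-specific binding.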

Sequence	PBM E-score
CGGAAAGC	0.0194
TTCGCGAA	0.132
CATAGATA	0.0148
CGGTCCAA	-0.176
CTATCATC	0.101
ACTGAGGG	-0.343
CATACAGG	0.0384
CCCCTGAG	-0.119
AGATGTAA	0.105
ATAAAGCA	0.0108
ATATCAAG	0.117
ATATGCCC	-0.155
TCCACGGA	0.226
AATCGTTA	-0.0976
CGTGATCA	-0.00858
ATAGGAAG	-0.186
ATGCCAGG	-0.0492
AGGAACTA	-0.0798
ACATGTCG	0.0297
ATCATGGC	-0.109
GGCGCTGA	0.327
ACTGCCAC	0.132
AAGCATAC	-0.0218
AGTCGTCC	-0.199
CACCGTTC	0.0204

Sequence	PBM E-score
CCGCCACG	0.0257
ACTTGGTC	-0.0254
ACTATGGG	-0.212
GGAGCATA	0.0292
GTTTTCAA	0.265
TAAAGATA	0.134
GGGTGCAA	-0.0292
GGGAAAGA	-0.21
CAAGGCGC	0.4
AAAATGCG	0.0834
GTCAATGA	-0.0766
ACTGAGCT	-0.083
CTGAGATA	0.0286
AAAGACTT	-0.129
CGACTGTA	-0.178
ACACCGGC	0.02
TATCCTAA	0.0431
AAGCAGTC	-0.277
CCATACGA	0.0449
ACAATCTG	0.081
ATCAAGTA	0.0281
TAGTAAAA	0.185
AGTATGTA	-0.0981
ACCGAGGA	-0.0552
ACGCTAGA	-0.157

Sequence	PBM E-score
TAGTGCCA	0.203
CTTCACTA	-0.00379
AGACTGCG	0.0168
GATGACCC	-0.261
ACTCGAAC	-0.014
ATACCTAC	0.042
CCAGCTCC	-0.143
GAATTGCA	-0.0065
ACACCGGG	-0.236
AGACTGGG	-0.255
AGTACGGC	0.436
GCTTGAGA	-0.225
CTAGACGA	0.105
ATAGTTTA	-0.0737
AAGTTTAC	0.0256
TATTCTGA	-0.256
CTATGGAG	-0.278
ACTAACGG	0.0898
ATGGCGTA	0.139
GCTACTTA	-0.075
GAAGACTA	-0.0197
GATGGCCC	-0.173
GATAACAA	0.179
CCCTAGTA	-0.00421
CTCCACGC	-0.0456

Sequence	PBM E-score
ACCGACCT	-0.149
CTACTCCA	-0.0998
GACTGAGA	-0.0801
ACTCGCCT	-0.00914
CATGGTGA	-0.088
GCGTCCCC	-0.184
CGCTCGAG	0.196
AGGGTGGC	-0.16
AACAGGAT	-0.0644
AAAAGGAA	0.107
GGGCCAAC	-0.221
CTTTGGCA	-0.165
AGCTGGAC	-0.196
AAAACTAC	0.205
GACTCTGC	-0.178
GGAATGTA	-0.064
CTACCTAA	0.0159
CATGTGAA	-0.0251
GGTCAAAA	-0.0425
CCCAGGGC	-0.103
CATGGCTC	0.0564
ACCGGACC	-0.175
CCAATGTC	-0.205
TAAGCAGA	-0.178
CCAACGCA	-0.0795

Sequence	PBM E-score
CCCAACGA	-0.182
ACCTTAGT	0.00759
GACGACTC	-0.233
GAGGGATC	-0.228
ACTCGTGC	-0.00445
AGTCGGCG	0.2
GAAGTTTA	0.0956
AGCTGAAA	-0.0168
ATGGCTCA	-0.0765
AATGTCCT	-0.246
ACCTGCGG	0.196
CGCATGCC	0.199
CACGATCA	0.188
AGGTACTC	-0.138
AGGACTCA	-0.164
AACCTGAC	-0.0483
AGACCTCA	0.0171
CGTCCCAG	-0.329
ACGTGTTG	0.0307
AGATGCTC	-0.108
CAGTGGCG	0.0512
GTAGGCCA	-0.0358
CTCGCAGC	-0.133
AGCTATAC	-0.0861
ACCGATGG	0.0108

Sequence	PBM E-score
GAAGTTGC	0.0438
CGACATAA	0.06
TAGCGACA	-0.146
CACCAGAG	-0.0081
AAGACGCA	-0.139
GTTACTTA	-0.00901
AGTTTTAG	-0.149
GCGCCCGA	0.0872
GGTATAAC	-0.0297
ACGCCTCA	0.313
ATCGGCGC	0.342
GCATTAAC	0.0874
AGGAAGAC	-0.188
ACACGATG	0.0654
AGCTCCAC	-0.199
AAATAAGG	0.0174
ACATTTTC	0.0893
GACCTCCC	-0.384
ATCGTCAC	-0.128
TAGGATAA	-0.039
CGCTAACC	-0.0457
GTGCTTAA	0.107
CCAGAAGG	0.0295
TCATCGGA	-0.142
TCGGGGCA	-0.189

Sequence	PBM E-score
ACCTAATA	0.182
ACAACTAA	0.208
GCAAGTCA	-0.0296
ACTGACAA	-0.0168
GGACATGA	-0.0592
ATCCTAAA	-0.167
AGGGTGCC	0.0272
GGTCGCGA	0.13
ATAGTCAA	-0.0637
AATTCAAA	0.0612
ACCAAGGG	-0.116
GGGTGTAA	-0.108
CCTCCTAG	-0.0286
AGGACTGG	-0.0956
GTGACATA	0.111
CTCCAGAG	-0.141
CCCACTGA	-0.175
CCACAGCC	-0.119
CCCAGTCC	-0.269
CACAAAGG	0.0246
AGCAGACA	-0.136
ACGGACAT	0.154
